# According to PubChem BioAssay AID588795 (National Center for Advancing Translational Sciences (NCATS), 2011):
# Among all 390,000 compounds or so, about 1,400 (0.36%) were called active. Inconclusive results, whose numbers are uncertain, are shown with a selection of clear calls. The call rests on the fitted dose curve; in most records, active means well fitted inhibition curve with a large enough effect; inconclusive means small, poorly fitted or top-dose-only effect; inactive means no such curve, though single readings can be large or run the other way. Where the call is inconclusive, the potency comes from a doubtful curve fit.
# Target: Flap endonuclease 1 (Homo sapiens) (UniProt P39748)
# Assay: qHTS Assay for the Inhibitors of Human Flap endonuclease 1 (FEN1). Further: nearly all actives have a fitted effect of over 65% in size.
# Settings: Recombinant FEN1 flap cleavage, fluorescence, 15 min; series mostly up to 114 µM; activity change, negative = inhibition: at the top concentration
# How it was run: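 Reaction started by adding substrate (50 nM final) to 10 nM enzyme after 15 min room-temperature compound preincubation. Reads at 0 and 15 min, with data normalized and fitted to a four-parameter Hill equation.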
# On the % scale 0 is the no-effect control and ±100 the full control effect; potency means the concentration at half of the fitted maximal effect; tags describe the fitted curve by direction and shape.
# Sequence of UniProt P39748 (P39748 whole entry, looked up): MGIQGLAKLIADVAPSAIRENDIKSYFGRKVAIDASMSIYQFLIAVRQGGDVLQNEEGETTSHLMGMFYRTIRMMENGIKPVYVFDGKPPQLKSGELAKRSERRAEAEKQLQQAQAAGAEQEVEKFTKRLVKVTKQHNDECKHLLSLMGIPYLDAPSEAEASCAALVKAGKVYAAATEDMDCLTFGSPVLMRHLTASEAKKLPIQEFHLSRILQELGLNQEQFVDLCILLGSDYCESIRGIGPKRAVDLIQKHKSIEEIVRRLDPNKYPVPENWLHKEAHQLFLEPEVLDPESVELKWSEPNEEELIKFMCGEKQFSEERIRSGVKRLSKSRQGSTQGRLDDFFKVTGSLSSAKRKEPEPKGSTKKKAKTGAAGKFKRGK
Compound,Potency,"activity change, negative = inhibition"
CCCCC[C@H]1CN(Cc2ccc(OC)cc2)C(=O)[C@@H]1CC(=O)NCc1ccccc1,"inconclusive: 79.4 µM [inhibitor, partial curve, poor fit]",–
O=C(c1ccco1)N1CCN(c2ncnc3c2[nH]c2ccc(Br)cc23)CC1,"inconclusive: 14.1 µM [inhibitor, full curve]",–
CSc1sccc1/C=C(/C#N)C(=O)c1ccco1,"inconclusive: 79.4 µM [inhibitor, partial curve]",–
CCCc1cc(-c2[nH]ncc2-c2ccc3c(c2)OCCCO3)c(O)cc1O,"inconclusive: 56.2 µM [inhibitor, partial curve, poor fit]",–
CC(C)=CCCC1(C)C=Cc2c(ccc3c2[nH]c2cc(O)c(C)cc23)O1 (stereo unspecified),"inconclusive: 31.6 µM [inhibitor, partial curve, poor fit]",–
CCOC(=O)c1ccc2ncc(C(=O)OCC)c(NCCN(C)C)c2c1,–,inactive: 15.8%
CCN(CC)CCN(C(=O)C1=COCCO1)c1nc2c(OC)ccc(OC)c2s1,"inconclusive: 89.1 µM [inhibitor, single point]",–
COc1cc(/C=C/c2nc3ccccc3c(=O)[nH]2)cc(Cl)c1O,"inconclusive: 79.4 µM [inhibitor, single point]",–
Cc1cccc(Nc2nc(NCCCN3CCOCC3)nc(N)c2[N+](=O)[O-])c1,"inconclusive: 89.1 µM [inhibitor, single point]",–
CCN(CC)CCn1c2ccccc2c2nc3ccc([N+](=O)[O-])cc3cc21,"inconclusive: 70.8 µM [inhibitor, single point]",–
Cc1cc2c(SCC(=O)Nc3cccc(O)c3)ncnc2s1,active: 44.7 µM,–
CC(=O)N(/N=C1\Sc2ccccc2C1=O)c1ccccc1C,–,inactive: 0.141%
CC(=O)Nc1ccn(C2OC(C(COC(C)=O)NC(=O)C(Cc3ccccc3)NC(=O)OC(C)(C)C)C(OC(C)=O)C2OC(C)=O)c(=O)n1 (stereo unspecified),–,inactive: -5.4%
C#CCOCCOCCOCCNc1nc(N2CCN(C(=O)Cn3cc(CC(C)O)nn3)CC2)nc(N2CCN(C(=O)[C@H](C)n3cc(CCCN=C(N)N)nn3)CC2)n1 (stereo partly specified),"inconclusive: 44.7 µM [inhibitor, partial curve, poor fit]",–
COc1ccc(Br)c2c1-c1nc(NC(=O)c3cccc(C)c3)sc1C2,"inconclusive: 11.2 µM [inhibitor, partial curve, poor fit]",–
CCN1/C(=C2/SC(=S)N(NC(C)=O)C2=O)Sc2ccc(OC)cc21,"inconclusive: 15.8 µM [inhibitor, full curve, poor fit]",–
COc1ccc(OC)c(NC(=O)CSC2=Nc3ccccc3C3=NC(CCC(=O)NCc4ccco4)C(=O)N23)c1 (stereo unspecified),–,inactive: -0.39%
Cc1ccc(-c2nc3ccc([N+](=O)[O-])cc3[nH]2)cc1,"inconclusive: 15.8 µM [inhibitor, full curve, poor fit]",–
Cc1ccc2nc(NCc3ccco3)c(C=NCc3ccco3)c(=O)n2c1,–,inactive: -2.1%
Cc1c(C(=O)NCc2ccc3c(c2)OCO3)oc2ccccc12,"inconclusive: 89.1 µM [inhibitor, partial curve, poor fit]",–
CN(C)c1ccc(/C=C/c2c3ccccc3cc[n+]2[O-])cc1,–,inactive: -2.26%
O=C(Nc1nccs1)c1ccc2nccnc2c1,"inconclusive: 89.1 µM [inhibitor, partial curve, poor fit]",–

Compound,Potency,"activity change, negative = inhibition"
NC(=O)N/N=C/c1cccc(OCc2ccc(F)cc2)c1,–,inactive: -4.87%
COc1cc(N(C)C)ccc1/C=C/c1ccnc2ccccc12,–,inactive: -6.06%
CC(=O)Nc1nonc1NC(C)=O,–,inactive: -6.54%
COc1cc(/C=C(\CCC(=O)O)c2nc3ccccc3s2)ccc1OCC(=O)Nc1c(Cl)cccc1Cl,"inconclusive: 50.1 µM [inhibitor, partial curve]",–
O=C(OCC(=O)N1N=C(c2ccc(Cl)cc2)CC1c1ccco1)c1cccnc1 (stereo unspecified),"inconclusive: 17.8 µM [inhibitor, full curve, poor fit]",–
Cc1noc(C)c1CSc1nc2ccccc2n1CCc1ccccc1,"inconclusive: 50.1 µM [inhibitor, partial curve, poor fit]",–
CC(=O)Nc1nonc1-c1nnc(SCC(=O)Nc2ccccc2Cl)n1C,–,inactive: -5.14%
COc1ccccc1N1CSC2=C(C#N)C(c3ccc(SC)cc3)CC(=O)N2C1 (stereo unspecified),"inconclusive: 15.8 µM [inhibitor, full curve, poor fit]",–
Cc1cc2cc(C)c(NCCNC(=O)c3ccccc3Cl)nc2cc1C,"inconclusive: 15.8 µM [inhibitor, partial curve, poor fit]",–
O=C(COC(=O)c1ccc2c(c1[N+](=O)[O-])C(=O)c1ccccc1C2=O)NC1CC1,"inconclusive: 89.1 µM [inhibitor, partial curve, poor fit]",–
CCN1/C(=C/c2cc[n+](CCCS(=O)(=O)[O-])c3ccccc23)Sc2ccccc21,"inconclusive: 39.8 µM [inhibitor, partial curve]",–
O=C(Nc1nc(-c2ccccc2)cs1)c1ccc(=O)[nH]c1,–,inactive: -9.89%
COC(=O)C(C)NC(=S)N1CCN(c2c(F)cc3c(=O)c(C(=O)O)cn(C4CC4)c3c2OC)CC1C (stereo unspecified),"inconclusive: 79.4 µM [inhibitor, partial curve, poor fit]",–
COc1ccc(NS(=O)(=O)c2ccc(O)c(NC(=O)c3cc4c(C)nn(-c5ccc(F)cc5)c4s3)c2)cc1,active: 56.2 µM,–
O=c1oc(-c2ccc(O)c(O)c2)cc2cc(O)cc(O)c12,active: 35.5 µM,–
COc1ccccc1NC(=O)C1=C(C)Nc2ncnn2C1c1ccc[nH]1 (stereo unspecified),"inconclusive: 89.1 µM [inhibitor, single point]",–
O=[N+]([O-])c1cc(/C=N/n2c(-c3ccncc3)n[nH]c2=S)ccc1Cl,active: 50.1 µM,–
CCN1Cc2cccc(C(=O)Nc3ccc(F)cc3)c2C1=O,–,inactive: 3.35%
COc1cc2cc(CCCOC(=O)c3cccc(Br)c3)oc(=O)c2cc1OC,"inconclusive: 89.1 µM [inhibitor, partial curve, poor fit]",–
CC1=C(c2ccc(Cl)cc2)S(=O)(=O)N=C1N1CCN(c2cccc(C)c2)C(C)C1 (stereo unspecified),–,inactive: -1.69%
Cc1cc(C)c2cc3c(N)c(C(=O)Nc4c(C)[nH]c(=O)[nH]c4=O)sc3nc2c1,"inconclusive: 39.8 µM [inhibitor, partial curve]",–
Nc1ccc(C(=O)N/N=C/c2sc(N3CCOCC3)nc2-c2ccccc2)cc1,"inconclusive: 50.1 µM [inhibitor, partial curve, poor fit]",–

Compound,Potency,"activity change, negative = inhibition"
C#CCOc1c(/C=C\c2nc(O)c([N+](=O)[O-])c(=O)[nH]2)cc(Br)cc1OC,"inconclusive: 31.6 µM [inhibitor, partial curve, poor fit]",–
CCn1cc2nc(SCc3cccc(C(F)(F)F)c3)n(CCc3ccccc3)c(=O)c2n1,"inconclusive: 28.2 µM [inhibitor, partial curve, poor fit]",–
Cc1cc(C(=O)Nc2sccc2C#N)c2ccccc2n1,–,inactive: -14.6%
C/C(=N/NC(=O)c1cccs1)c1c(C)[nH]n(-c2nc3ccccc3s2)c1=O,"inconclusive: 39.8 µM [inhibitor, partial curve, poor fit]",–
CCOc1cc(C(=O)Nc2c(NC)c3ccccc3oc2=O)cc(OCC)c1OCC,–,inactive: 6.04%
O=C1NC[C@@H](Cc2cccc3ccccc23)N(CCCCC2CCCCC2)C1=O,"inconclusive: 79.4 µM [inhibitor, partial curve, poor fit]",–
O=C(O)COc1ccccc1C=NNC(=O)c1ccc(NS(=O)(=O)c2cccs2)cc1,–,inactive: -0.666%
CC(=O)c1cc(-c2ccccc2)n(CC(=O)N2CCC(N3CCCCC3)CC2)c1C,–,inactive: 8.75%
CCCn1c2ccccc2c2cnn(CC(=O)N(CCCOC(C)C)Cc3ccco3)c(=O)c21,–,inactive: -24.5%
O=C(Nc1ccc(-c2nc3ncccc3o2)cc1)c1ccc([N+](=O)[O-])o1,–,inactive: 10.4%
CCOC(=O)C1=C(Cc2ccc(Cl)cc2)C(=O)c2ccccc2C1=O,"inconclusive: 89.1 µM [inhibitor, single point]",–
N#CC1=C2SCN(Cc3ccco3)CN2C(=O)CC1c1c(F)cccc1Cl (stereo unspecified),"inconclusive: 17.8 µM [inhibitor, full curve, poor fit]",–
Cc1ccn2c(Nc3ccc4c(c3)OCO4)c(-c3ccco3)nc2c1,"inconclusive: 89.1 µM [inhibitor, single point]",–
Cc1cc(NC(=O)CSc2sc3c(O)cc(=O)[nH]c3c2C#N)ccc1Br,"inconclusive: 35.5 µM [inhibitor, partial curve, poor fit]",–
COc1ccc(-c2noc(-c3ccc(NC4CCCCC4)c([N+](=O)[O-])c3)n2)cc1OC,–,inactive: 16%
O=C(COC(=O)c1ccccc1[N+](=O)[O-])c1ccc2c(c1)OCO2,–,inactive: -6.22%
C#CCn1cc(/C=C2\NC(=O)NC2=O)c2ccccc21,–,inactive: -30.8%
COc1cn(CC(=O)Nc2cc(C)ccc2C)c(CN2CCCCC2)cc1=O,–,inactive: 20.6%
O=C(c1cn(CCOc2ccc(Cl)cc2)c2ccccc12)C1CCCCC1,"inconclusive: 79.4 µM [inhibitor, partial curve, poor fit]",–
O=C(O)c1cccc(N/N=C/c2cc(Br)cc(Br)c2O)c1,"inconclusive: 79.4 µM [inhibitor, partial curve, poor fit]",–
COc1ccc(/C=C/CN2CCCC(CO)(Cc3cccc(Cl)c3)C2)cc1 (stereo unspecified),"inconclusive: 56.2 µM [inhibitor, partial curve, poor fit]",–
COc1ccc(CN(Cc2ccccc2)C(=O)c2cccc(C#N)c2)cc1COc1ccc(NC(C)=O)cc1,–,inactive: 3.94%
